Reference: paper PMC9381540, “USP21 promotes self-renewal and tumorigenicity of mesenchymal glioblastoma stem cells by deubiquitinating and stabilizing FOXD1” (Cell Death & Disease, 2022)
Results are given in words; binding and its absence hold for the method and conditions named. Binding seen in cells or lysates may run through a third protein. Some entries that bind do so weakly or less than the wild type. For part of these data: Where a sequence is shown, tags or fusion partners need not be part of it.

The chains behind the UniProt entries cited, without tags or fusion partners.
UniProt Q92905: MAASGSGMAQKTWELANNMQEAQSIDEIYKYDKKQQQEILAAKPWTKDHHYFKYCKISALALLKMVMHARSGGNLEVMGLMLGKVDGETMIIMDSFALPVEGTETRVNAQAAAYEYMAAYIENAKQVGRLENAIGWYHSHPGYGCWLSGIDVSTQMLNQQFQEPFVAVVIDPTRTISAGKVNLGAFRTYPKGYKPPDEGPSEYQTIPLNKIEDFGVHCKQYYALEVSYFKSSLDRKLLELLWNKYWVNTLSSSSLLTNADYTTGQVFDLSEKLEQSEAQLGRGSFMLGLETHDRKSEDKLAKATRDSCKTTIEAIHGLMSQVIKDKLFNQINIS

How the values were obtained:
COPS5 (human) = COPS5 (human) (UniProt Q92905); assay: co-IP; HEK293T cells expressing each of four DUBs (COPS5, SENP6, USP22, USP21); endogenous FOXD1; lysates immunoprecipitated overnight at 4 °C, protein A/G, immunoblot
[1] = target: T1, Flag-USP21 WT (ubiquitin-specific peptidase 21) (human) (UniProt Q9UK80); assay: as above
T1 sequence: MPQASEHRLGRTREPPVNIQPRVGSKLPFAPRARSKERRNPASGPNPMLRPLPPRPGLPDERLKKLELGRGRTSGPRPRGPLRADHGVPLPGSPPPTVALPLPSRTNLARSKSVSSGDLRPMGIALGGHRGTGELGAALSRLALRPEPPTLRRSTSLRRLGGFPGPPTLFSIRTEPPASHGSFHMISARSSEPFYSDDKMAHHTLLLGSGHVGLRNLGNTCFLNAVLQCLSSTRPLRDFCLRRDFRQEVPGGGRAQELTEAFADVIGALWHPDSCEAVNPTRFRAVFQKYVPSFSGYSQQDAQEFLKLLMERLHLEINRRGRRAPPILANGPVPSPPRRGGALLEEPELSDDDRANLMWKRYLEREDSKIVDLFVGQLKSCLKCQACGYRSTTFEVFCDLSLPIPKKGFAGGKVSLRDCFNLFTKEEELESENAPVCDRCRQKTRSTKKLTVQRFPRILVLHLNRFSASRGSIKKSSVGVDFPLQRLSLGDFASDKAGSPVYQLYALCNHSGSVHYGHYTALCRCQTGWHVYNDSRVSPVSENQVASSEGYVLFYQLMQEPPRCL

USP22 (human) = target: T2, USP22 (human) (UniProt Q9UPT9); assay: as above
T2 sequence: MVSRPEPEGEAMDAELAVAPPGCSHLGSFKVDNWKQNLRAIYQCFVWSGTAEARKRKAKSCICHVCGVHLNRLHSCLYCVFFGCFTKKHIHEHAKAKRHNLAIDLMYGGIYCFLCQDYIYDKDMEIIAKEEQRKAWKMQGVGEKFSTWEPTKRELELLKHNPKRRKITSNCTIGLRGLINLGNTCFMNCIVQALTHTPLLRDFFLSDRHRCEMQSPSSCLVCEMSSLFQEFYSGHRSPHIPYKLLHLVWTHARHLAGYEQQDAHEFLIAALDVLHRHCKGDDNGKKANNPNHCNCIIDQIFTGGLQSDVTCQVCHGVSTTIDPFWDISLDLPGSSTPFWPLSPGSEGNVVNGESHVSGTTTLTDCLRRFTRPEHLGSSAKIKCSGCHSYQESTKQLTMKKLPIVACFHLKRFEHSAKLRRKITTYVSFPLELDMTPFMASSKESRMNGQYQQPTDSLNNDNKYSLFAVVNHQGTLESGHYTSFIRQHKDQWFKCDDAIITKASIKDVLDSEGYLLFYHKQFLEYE

[2] = target: T3, Flag-USP21 C221A (catalytically inactive mutant) (human) (UniProt Q9UK80); assay: co-IP; HEK293T cells with Flag-USP21 WT or C221A and Myc-FOXD1; Flag immunoprecipitates blotted for Myc-FOXD1
T3 sequence: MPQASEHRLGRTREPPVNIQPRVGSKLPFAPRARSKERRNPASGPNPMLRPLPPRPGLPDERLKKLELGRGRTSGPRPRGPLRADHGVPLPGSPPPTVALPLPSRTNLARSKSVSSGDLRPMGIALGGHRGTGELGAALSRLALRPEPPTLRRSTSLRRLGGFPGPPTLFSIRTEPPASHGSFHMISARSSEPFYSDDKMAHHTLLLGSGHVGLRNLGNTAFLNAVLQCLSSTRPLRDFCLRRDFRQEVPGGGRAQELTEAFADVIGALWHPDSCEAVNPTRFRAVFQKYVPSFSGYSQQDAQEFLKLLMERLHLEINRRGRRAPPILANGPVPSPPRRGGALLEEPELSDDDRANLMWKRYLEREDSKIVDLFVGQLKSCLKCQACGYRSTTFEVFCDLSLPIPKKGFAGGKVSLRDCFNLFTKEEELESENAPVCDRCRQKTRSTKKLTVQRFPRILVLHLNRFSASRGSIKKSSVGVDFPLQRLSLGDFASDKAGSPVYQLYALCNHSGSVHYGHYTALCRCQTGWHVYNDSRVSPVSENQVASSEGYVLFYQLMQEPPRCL

[3] = target: T1, Flag-USP21 WT (ubiquitin-specific peptidase 21) (human); assay: as above
[4] = target: T4, endogenous USP21 (MES 21 and 505 GSCs) (human (endogenous in MES 21 and 505 GSCs)) (UniProt Q9UK80); assay: co-IP; reciprocal co-IP of endogenous USP21 and FOXD1 in MES 21 and 505 GSCs
T4 sequence: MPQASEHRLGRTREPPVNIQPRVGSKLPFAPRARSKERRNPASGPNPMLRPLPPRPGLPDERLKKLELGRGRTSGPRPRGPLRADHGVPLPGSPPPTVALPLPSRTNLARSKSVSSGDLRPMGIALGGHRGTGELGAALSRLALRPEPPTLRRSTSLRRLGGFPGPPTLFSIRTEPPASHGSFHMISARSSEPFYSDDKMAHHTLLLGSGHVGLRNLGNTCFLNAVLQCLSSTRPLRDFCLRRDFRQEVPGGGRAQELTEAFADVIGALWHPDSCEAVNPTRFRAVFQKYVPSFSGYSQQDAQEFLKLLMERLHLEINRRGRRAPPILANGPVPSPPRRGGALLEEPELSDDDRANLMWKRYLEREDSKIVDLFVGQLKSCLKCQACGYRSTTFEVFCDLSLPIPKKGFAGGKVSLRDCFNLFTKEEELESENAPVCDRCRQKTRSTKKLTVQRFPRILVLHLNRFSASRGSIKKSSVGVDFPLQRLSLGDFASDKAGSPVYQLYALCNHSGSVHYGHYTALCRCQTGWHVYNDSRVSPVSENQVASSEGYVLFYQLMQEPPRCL

B1: endogenous FOXD1 (HEK293T) (protein, UniProt Q16676 1-465)
chain: MTLSTEMSDASGLAEETDIDVVGEGEDEEDEEEEDDDEGGGGGPRLAVPAQRRRRRRSYAGEDELEDLEEEEDDDDILLAPPAGGSPAPPGPAPAAGAGAGGGGGGGGAGGGGSAGSGAKNPLVKPPYSYIALITMAILQSPKKRLTLSEICEFISGRFPYYREKFPAWQNSIRHNLSLNDCFVKIPREPGNPGKGNYWTLDPESADMFDNGSFLRRRKRFKRQPLLPPNAAAAESLLLRGAGAAGGAGDPAAAAALFPPAPPPPPHAYGYGPYGCGYGLQLPPYAPPSALFAAAAAAAAAAAFHPHSPPPPPPPHGAAAELARTAFGYRPHPLGAALPGPLPASAAKAGGPGASALARSPFSIESIIGGSLGPAAAAAAAAQAAAAAQASPSPSPVAAPPAPGSSGGGCAAQAAVGPAAALTRSLVAAAAAAASSVSSSAALGTLHQGTALSSVENFTARISNC
With B1 the binding (COPS5 (human)) was “no binding”, the binding [1] was “binds” and the binding (USP22 (human)) was “no binding”.

B2: Myc-FOXD1 (Forkhead box D1) (protein, UniProt Q16676 1-465)
chain: MTLSTEMSDASGLAEETDIDVVGEGEDEEDEEEEDDDEGGGGGPRLAVPAQRRRRRRSYAGEDELEDLEEEEDDDDILLAPPAGGSPAPPGPAPAAGAGAGGGGGGGGAGGGGSAGSGAKNPLVKPPYSYIALITMAILQSPKKRLTLSEICEFISGRFPYYREKFPAWQNSIRHNLSLNDCFVKIPREPGNPGKGNYWTLDPESADMFDNGSFLRRRKRFKRQPLLPPNAAAAESLLLRGAGAAGGAGDPAAAAALFPPAPPPPPHAYGYGPYGCGYGLQLPPYAPPSALFAAAAAAAAAAAFHPHSPPPPPPPHGAAAELARTAFGYRPHPLGAALPGPLPASAAKAGGPGASALARSPFSIESIIGGSLGPAAAAAAAAQAAAAAQASPSPSPVAAPPAPGSSGGGCAAQAAVGPAAALTRSLVAAAAAAASSVSSSAALGTLHQGTALSSVENFTARISNC
For B2, the binding [2] was “binds” and the binding [3] was “binds”.

B3: endogenous FOXD1 (MES 21 and 505 GSCs) (protein, UniProt Q16676 1-465)
chain: MTLSTEMSDASGLAEETDIDVVGEGEDEEDEEEEDDDEGGGGGPRLAVPAQRRRRRRSYAGEDELEDLEEEEDDDDILLAPPAGGSPAPPGPAPAAGAGAGGGGGGGGAGGGGSAGSGAKNPLVKPPYSYIALITMAILQSPKKRLTLSEICEFISGRFPYYREKFPAWQNSIRHNLSLNDCFVKIPREPGNPGKGNYWTLDPESADMFDNGSFLRRRKRFKRQPLLPPNAAAAESLLLRGAGAAGGAGDPAAAAALFPPAPPPPPHAYGYGPYGCGYGLQLPPYAPPSALFAAAAAAAAAAAFHPHSPPPPPPPHGAAAELARTAFGYRPHPLGAALPGPLPASAAKAGGPGASALARSPFSIESIIGGSLGPAAAAAAAAQAAAAAQASPSPSPVAAPPAPGSSGGGCAAQAAVGPAAALTRSLVAAAAAAASSVSSSAALGTLHQGTALSSVENFTARISNC
For B3, the binding [4] was “binds”.
